From PubChem BioAssay AID463173 (ICCB-Longwood Screening Facility, Harvard Medical School, 2010)
Hit rate of the full screen: of about 52,000 compounds, about 4,300 (8.3%) were called active. Rule as the data show it: active = survival mostly below about 52% (no sharp cut-off); inactive = mostly above about 56%. Some of the results follow.

System: DeltatarO mutant
Experiment: growth inhibition of S. aureus wild type versus tarO mutant, primary screen, teichoic acid synthesis inhibitors, RN4220, OD600 (AID 463173)
Conditions: OD600, 18 h, stronger effect = lower value, screened at 18.75 µg/mL (by protocol)

Row | SMILES | survival
1 | CCOC(=O)c1c(NC(=O)COc2cc(C)ccc2C(C)C)sc(C)c1C | inactive: 63%
2 | CCOc1cccc(C(c2c(C)n(C)n(-c3ccccc3)c2=O)c2c(C)n(C)n(-c3ccccc3)c2=O)c1OC | inactive: 83%
3 | CCOCCCNC(=O)C(Cc1ccccc1)NS(=O)(=O)c1ccc2c(c1)c(=O)n(C)c(=O)n2C (configuration not stated) | inactive: 88%
4 | CCC/C(O)=C1\C(=O)CC(C)(C)CC1=Nc1ccccc1OC | inactive: 74%
5 | COc1ccc(Cl)cc1-n1c(/C=C/c2cccc3ccccc23)nc2ccccc2c1=O | inactive: 75%
6 | CC1CCN(S(=O)(=O)c2ccc(S(=O)(=O)N3CCCN(Cc4ccccc4)C3)cc2)CC1 | inactive: 106%
7 | COc1ccc(-c2nc(CSc3nncn4c3cc3occc34)c(C)o2)cc1 | inactive: 96%
8 | O=C(Nc1ccc2c(c1)OCO2)c1ccccc1 | inactive: 85%
9 | O=C(Nc1cccc(OCc2cc(=O)n3c4c(sc3n2)CCCC4)c1)c1ccc(F)cc1 | inactive: 111%
10 | Cc1ccccc1-c1noc(CCC(=O)Nc2cccc(C)c2C)n1 | inactive: 88%
11 | Cc1ccc2nc(-c3cc(NC(=O)/C=C/c4ccccc4)ccc3Cl)oc2c1 | inactive: 68%
12 | COc1ccc(C(=O)Nc2ccc3nc(N4CCC(C)CC4)cc(C)c3c2)cc1 | inactive: 56%
13 | COc1cc(Cl)c(C)cc1NC(=O)c1cn(C2CCCC2)c(=O)c2c1c1ccccc1n2C | inactive: 109%
14 | O=C(c1cccc(Cl)c1)N1CCN(CCc2ccncc2)CC1 | inactive: 81%
15 | CCOc1ccc(-c2nnc(SCC(=O)NCCc3ccc(OC)c(OC)c3)nc2-c2ccc(OCC)cc2)cc1 | inactive: 98%
16 | CCC(=O)N1CCN(c2ccc(NC(=O)COc3ccccc3)cc2)CC1 | inactive: 76%
17 | Cc1ccc(S(=O)(=O)NCc2ccc(/C=C(/C#N)C(=O)NCc3ccccc3)o2)cc1 | inactive: 69%
18 | CN(Cc1ccccc1)C(=O)CSc1nc2ccsc2c(=O)n1-c1ccc(F)cc1 | inactive: 109%
19 | COc1cccc(NS(=O)(=O)c2ccc3[nH]cc(C(=O)NCCc4ccccc4)c(=O)c3c2)c1 | inactive: 83%
20 | Cc1ccc2oc(=O)c3cnn(CC(=O)N4CCN(c5cc(Cl)ccc5C)CC4)c3c2c1 | inactive: 77%
21 | COc1cccc(CNc2nc3c(-c4ccccc4)nnn3c3ccccc23)c1 | inactive: 84%
22 | CCOc1ccc(NC(=O)c2cc(S(=O)(=O)N3CCCCC3)c[nH]2)cc1 | inactive: 107%

Row | SMILES | survival
23 | CCC(=O)N1CCc2cc(Br)cc(S(=O)(=O)CCC(=O)Nc3ccc(C)c(C)c3)c21 | inactive: 55%
24 | COc1ccc(-c2noc(-c3ccc(NCc4cccnc4)c([N+](=O)[O-])c3)n2)cc1 | inactive: 56%
25 | O=C(NCc1ccccc1Cl)c1cnc2sc(N3CCOCC3)nn2c1=O | inactive: 71%
26 | COc1ccc(NC(=O)CCc2nnc3n(C)c(=O)c4sccc4n23)cc1Cl | inactive: 78%
27 | CCn1cc(C(=O)NCCCN(CC(C)C)CC(C)C)c(=O)c2cc(S(=O)(=O)N(C)C3CCCCC3)ccc21 | inactive: 85%
28 | COc1cccc(N2C(=O)N(Cc3ccc(C#N)cc3)c3ccccc3S2(=O)=O)c1 | inactive: 89%
29 | O=S(=O)(c1ccccc1F)N1CCC(Oc2ccc(-n3cnnn3)cc2)CC1 | inactive: 72%
30 | CCc1ccccc1NC(=O)Cn1c(=O)n(CC2CCC(C(=O)NCCc3ccccc3)CC2)c(=O)c2ccccc21 (configuration not stated) | inactive: 78%
31 | CCS(=O)(=O)N1CCC(n2c(C)nc3cccnc32)CC1 | inactive: 75%
32 | Cc1ccc(Cl)c(NC(=O)Nc2csc3c2CCCC3)c1 | inactive: 77%
33 | CN1C(=O)c2ccccc2Sc2ccc(NC(=O)COc3ccccc3)cc21 | inactive: 75%
34 | Cc1ccccc1OCc1nnc(SCC(=O)N(C)C)n1-c1ccccc1 | inactive: 93%
35 | COc1cc2oc(=O)c(CC(=O)N3CCCCC3)c(C)c2cc1OC | inactive: 51%
36 | COc1ccc(C2=NS(=O)(=O)N(C)C(C(=O)NCc3ccccc3)=C2)cc1OC | inactive: 100%
37 | COc1ccc(-c2cc(C(=O)Nc3ccn(Cc4ccc(C)cc4)n3)no2)cc1OC | inactive: 57%
38 | CCc1ccc(NC(=O)C(=O)NCC(c2ccc3c(c2)OCO3)N2CCOCC2)cc1 (configuration not stated) | inactive: 83%
39 | Cc1ccc(S(=O)(=O)c2nc(-c3ccccc3Cl)oc2N2CCCCCC2)cc1 | active: 25%
40 | Cc1ccc(C)c(CSc2cn(CC(=O)N3CCCCCC3)c3ccccc23)c1 | inactive: 86%
41 | COc1ccc(NC(=O)CCCc2nnc3n(CCC(C)C)c(=O)c4sccc4n23)c(OC)c1 | inactive: 95%
42 | COc1ccc(-c2csc3nc(-c4ccc(F)cc4)oc(=O)c23)cc1 | inactive: 61%
43 | COc1ccc(C(=O)/C=C/c2cn(CC(O)CN(CC(C)C)CC(C)C)c3ccccc23)cc1 (configuration not stated) | inactive: 58%
44 | CCOC(=O)c1nc(N2CCN(c3ccc(F)cc3)CC2)c2c(C)noc2n1 | inactive: 55%

Row | SMILES | survival
45 | CCn1c(=O)n(-c2ccc(F)c(Cl)c2)c(=O)c2c3c(sc21)CN(C(C)=O)CC3 | inactive: 129%
46 | COc1cccc(C(=O)Nc2ccc(-c3nc4ccccc4s3)cc2Cl)c1 | inactive: 72%
47 | Cc1cc(C)cc(-n2ccnc2SCC(=O)Nc2nc3ccccc3s2)c1 | inactive: 71%
48 | COc1ccc(-c2nc3sc(CCNC(=O)c4cccc(C(F)(F)F)c4)c(C)n3n2)cc1 | inactive: 75%
49 | CCOc1ccc(C2c3[nH]c4ccccc4c3CCN2C(=O)Cc2cccc(OCC)c2OCC)cc1 (configuration not stated) | inactive: 125%
50 | Cc1ccccc1Cn1nnc2c(=O)[nH]c(C3CCN(C(=O)c4ccccc4)CC3)nc21 | active: 17%
51 | CCOC(=O)c1cnc2ccc(C(=O)OC)cc2c1Nc1ccccc1CC | active: -3%
52 | CSc1ncc(C(=O)NCc2ccccc2)c(-c2ccccc2)n1 | active: 37%
53 | COc1ccc(NC(=O)C2CCCN2S(=O)(=O)c2cccc3cccnc23)cc1OC (configuration not stated) | inactive: 87%
54 | CC(C)(C)n1cnc2cc(NCc3ccccc3Cl)ccc21 | active: 7%
55 | CC(C)Oc1ccc(CNC(=O)c2ccc(NC(=O)N3CCSc4ncccc43)cc2)cc1 | active: 6%
56 | CCC(C(=O)NCc1ccccc1OC)n1nc(C)n2c(cc3sccc32)c1=O (configuration not stated) | inactive: 82%
57 | Cc1[nH]c2ccc(S(N)(=O)=O)cc2c1C | inactive: 88%
58 | Cc1n[nH]c(C)c1S(=O)(=O)N1CCCC(C(=O)Nc2ccc(Cl)cc2)C1 (configuration not stated) | inactive: 131%
59 | Cc1ccc(C)c(N2CCN(C(=O)Cn3c(-c4cccs4)cc4ccccc43)CC2)c1 | inactive: 71%
60 | CCN(C(=O)Cn1cc(S(=O)(=O)Cc2ccccc2Cl)c2ccccc21)c1ccccc1 | inactive: 69%
61 | Cc1ccc(N2CCN(C(=O)c3c4c(nc5ccccc35)C(=O)N(C3CCCCC3)C4)CC2)c(C)c1 | inactive: 69%
62 | COc1ccc(C(=O)Nc2nc3c(s2)CCc2cc(OC)ccc2-3)cc1 | active: 35%
63 | COCCCn1c(SCC(=O)NCc2ccccc2)nc2c(sc3ccccc32)c1=O | inactive: 82%
64 | CN(C)c1ccc(CNC(=O)C2CCN(S(=O)(=O)c3ccc4c(ccn4C)c3)CC2)cc1 | inactive: 95%
65 | Cc1ccc(C)c(Nc2nn3c(=O)c4ccc(C(=O)NCCc5ccccc5)cc4nc3s2)c1 | inactive: 82%
66 | CCc1ccccc1N(C)C(=O)c1cnc(N2CCOCC2)c2ccccc12 | inactive: 91%

Row | SMILES | survival
67 | Cc1cccc(C(=O)N2CCc3cc(CNC(=O)Cc4ccc(F)cc4)ccc32)c1 | inactive: 72%
68 | Cc1cc(Br)ccc1NC(=O)c1cn(C2CCCC2)c(=O)c2c1c1ccccc1n2C | inactive: 73%
69 | Cc1ccc(Cc2nc3ccccc3nc2SCC(=O)NCc2ccc(F)cc2)cc1 | inactive: 74%
70 | COc1ccc(CCNc2ncnc3c2c(-c2ccccc2)cn3-c2ccc(F)cc2)cc1OC | inactive: 85%
71 | CCNc1nc(Cl)nc(N(C)C#N)n1 | inactive: 96%
72 | CCC(=O)C1=C(c2cccc([N+](=O)[O-])c2)N(C(=O)CC)n2c(nnc2-c2ccccc2)S1 | active: 8%
73 | Cc1ccc(-n2ncc3c(N4CCN(CCO)CC4)ncnc32)cc1Cl | inactive: 101%
74 | CCCCNc1nc(Oc2ccc(OCC(N)=O)nn2)nc(N2CCOCC2)n1 | inactive: 108%
75 | CCOc1cc(C2c3c(oc4ccc(F)cc4c3=O)C(=O)N2Cc2ccco2)ccc1O (configuration not stated) | inactive: 90%
76 | Cc1ccc(S(=O)(=O)c2c(F)c(F)c(S(=O)(=O)c3ccc(C)cc3)c(F)c2F)cc1 | inactive: 79%
77 | Cc1ccc(-n2c(SCC(=O)Nc3ccc4c(c3)OCO4)nc3c([nH]c4ccccc43)c2=O)cc1 | inactive: 128%
78 | Cc1ccc(-c2cc(C(=O)NCc3cnn(C)c3)c3cc(Br)ccc3n2)cc1 | inactive: 51%
79 | Cc1[nH]c2ccccc2c1/C=N\NC(=O)Cn1nnc(-c2ccccc2)n1 | inactive: 64%
80 | O=C(NCCc1ccccc1)c1ccc2c(c1)CCN2S(=O)(=O)c1ccc(Br)cc1 | inactive: 67%
81 | CCOc1ccc(C(=O)Nc2nnc(S(=O)(=O)N(CC)c3ccccc3C)s2)cc1 | active: 44%
82 | CC(=O)c1cccc(NC(=O)CCCN2C(=O)COc3ccc(C)cc32)c1 | inactive: 139%
83 | CCC(=O)N1CCCc2cc(S(=O)(=O)N3CCC(C(=O)Nc4ccc(F)c(F)c4)CC3)ccc21 | inactive: 116%
84 | CCNc1nc2c(c(=O)[nH]c(=O)n2C)n1CC(O)COc1ccc(Cl)cc1Cl (configuration not stated) | inactive: 180%
85 | COc1ccc(N2CC(c3nc(-c4cc(OC)c(OC)c(OC)c4)no3)CC2=O)cc1Cl (configuration not stated) | inactive: 118%
86 | O=C(CCS(=O)(=O)c1cccs1)Nc1ccc(C(=O)Nc2cccc(Cl)c2)cc1 | inactive: 49%
87 | Cc1ccc(C)c(NC(=O)CN2C(=O)CSc3nc(C)cc(C)c32)c1 | inactive: 103%
